# Assay results: the supplement of paper PMC7238544
# Structures can show the parent of a compound that is named as a salt. ± gives the standard deviation of the averaged measurements. The list shows a part of the results.
# Tests used:
# Details in all cases: priming compound concentration 100 µM
# [1] = system: hAMSC donor 1; experiment: Hoechst total cell count ratio vs vehicle control; higher = more cells (less toxicity)
# [2] = system: hAMSC donor 2; experiment: as above
# [3] = system: hAMSC donor 1; experiment: transgenic luciferase activity (RLU/mg protein) fold change vs vehicle control (ratio); higher = more transgene expression
# [4] = system: hAMSC donor 2; experiment: as above
# [5] = system: hAMSC donor 1; experiment: transfection efficiency (EGFP+ cells / Hoechst count) fold change vs vehicle control (ratio); hAMSC are human adipose-derived mesenchymal stem cells given an EGFP-luciferase plasmid by lipofection; higher = enhanced transfection
# [6] = system: hAMSC donor 2; experiment: as above
# 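For Hoechst total cell count ratio vs vehicle control in this document: compound added 30 min before Lipofectamine 3000 lipoplex delivery, triplicate-well means expressed against DMSO vehicle control wells of the same 96-well plate.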
# 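For transfection efficiency (EGFP+ cells / Hoechst count) fold change vs vehicle control in this document: compounds added 30 min before Lipofectamine 3000 lipoplex transfection, triplicate means relative to DMSO vehicle wells on the same plate, luciferase RLU normalized to BCA total protein.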
# 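For transgenic luciferase activity (RLU/mg protein) fold change vs vehicle control in this document: compounds in DMSO added 30 min before Lipofectamine 3000 transfection of pEGFP-Luc in 96-well plates, values are means of triplicate wells over DMSO vehicle wells on the same plate.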
Compound,Hoechst total cell count ratio [1],Hoechst total cell count ratio [2],transgenic luciferase activity [3],transgenic luciferase activity [4],transfection efficiency [5],transfection efficiency [6]
Nc1nc(O)c2ncn(CCC(CO)CO)c2n1 [Penciclovir],0.817 ± 0.034,1.02 ± 0.094,0.788 ± 0.24,0.791 ± 0.28,1.33 ± 0.19,1.56 ± 0.26
CN1CCC(=C2c3ccccc3CCc3sccc32)CC1 [Pizotyline maleate],0.164 ± 0.077,0.0817 ± 0.014,0.00986 ± 0.011,0.0303 ± 0.017,0.367 ± 0.13,0.369 ± 0.1
O=C1CN(/N=C/c2ccc(-c3ccc([N+](=O)[O-])cc3)o2)C(=O)N1 [Dantrolene sodium],1.3 ± 0.18,1.98 ± 0.28,0.605 ± 0.1,0.852 ± 0.26,0.813 ± 0.36,0.718 ± 0.078
CCN1CCCC1CNC(=O)c1cc(S(=O)(=O)CC)c(N)cc1OC (centres undefined) [Amisulpride],1.25 ± 0.21,1.37 ± 0.038,0.86 ± 0.13,0.826 ± 0.27,0.744 ± 0.1,0.985 ± 0.2
CSc1nc2cc(Cl)c(Oc3cccc(Cl)c3Cl)cc2[nH]1 [Triclabendazole],1.14 ± 0.039,0.942 ± 0.17,0.468 ± 0.21,1.1 ± 0.49,0.989 ± 0.35,0.892 ± 0.21
Cc1ccc(O)c([C@H](CCN(C(C)C)C(C)C)c2ccccc2)c1 [Tolterodine tartrate],1.26 ± 0.19,0.938 ± 0.061,0.552 ± 0.23,0.782 ± 0.57,1.12 ± 0.21,1.07 ± 0.029
CN[C@@H]1[C@H](O)[C@H](NC)[C@H]2O[C@@]3(O)C(=O)C[C@@H](C)O[C@H]3O[C@@H]2[C@H]1O [Spectinomycin],1.39 ± 0.051,1.11 ± 0.089,0.857 ± 0.19,0.675 ± 0.14,1.25 ± 0.22,0.881 ± 0.082
CC(C)(C)NCC(O)COc1cccc2c1CC(O)C(O)C2 (centres undefined) [Nadolol],1.07 ± 0.049,1.45 ± 0.29,0.649 ± 0.095,0.737 ± 0.079,1.05 ± 0.019,0.793 ± 0.12
CN(C)C(=O)C(CCN1CCC(O)(c2ccc(Cl)cc2)CC1)(c1ccccc1)c1ccccc1 [Loperamide hydrochloride],0.121 ± 0.018,0.025 ± 0.018,0.0374 ± 0.025,0.0661 ± 0.055,0.845 ± 0.73,0.155 ± 0.27
c1ccc2[nH]c(-c3cscn3)nc2c1 [Thiabendazole],1.09 ± 0.057,1.05 ± 0.22,2.28 ± 0.23,1.18 ± 0.45,1.65 ± 0.49,1.29 ± 0.078
CCOC(=O)[C@H](CCc1ccccc1)N[C@@H](C)C(=O)N1[C@H](C(=O)O)C[C@@H]2CCC[C@@H]21 [Ramipril],1.55 ± 0.14,1.56 ± 0.26,0.534 ± 0.22,0.635 ± 0.13,0.709 ± 0.28,0.747 ± 0.23
O=C1c2c(O)cc(O)cc2O[C@H](c2ccc(O)c(O)c2)[C@H]1O [Taxifolin-(+)],1.29 ± 0.11,0.917 ± 0.086,2.67 ± 0.73,0.212 ± 0.07,1.46 ± 0.6,1 ± 0.22
CC(=O)NS(=O)(=O)c1ccc(N)cc1 [Sulfacetamide],0.993 ± 0.1,1.01 ± 0.19,1.13 ± 0.24,0.67 ± 0.072,1.48 ± 0.018,1.99 ± 0.43
COc1ccc(Cl)cc1C(=O)NCCc1ccc(S(=O)(=O)NC(=O)NC2CCCCC2)cc1 [Glyburide],1.8 ± 0.27,1.59 ± 0.27,3.59 ± 1.8,0.54 ± 0.13,1.68 ± 0.42,1.38 ± 0.28
C=CC[C@@H]1/C=C(\C)C[C@H](C)C[C@H](OC)[C@H]2O[C@@](O)(C(=O)C(=O)N3CCCC[C@H]3C(=O)O[C@H](/C(C)=C/[C@@H]3CC[C@@H](O)[C@H](OC)C3)[C@H](C)[C@@H](O)CC1=O)[C@H](C)C[C@@H]2OC [Tacrolimus],0.131 ± 0.064,0.124 ± 0.074,0.0338 ± 0.031,0.00184 ± 0.00052,0.42 ± 0.44,0.138 ± 0.036
CCOC(=O)[C@H](CCc1ccccc1)N[C@@H](C)C(=O)N1CCC[C@H]1C(=O)O [Enalapril maleate],1.07 ± 0.077,1.42 ± 0.07,0.384 ± 0.025,0.66 ± 0.037,0.75 ± 0.069,0.897 ± 0.056
Nc1cc(N2CCCCC2)nc(N)[n+]1[O-] [Minoxidil],1.1 ± 0.03,1.34 ± 0.19,0.365 ± 0.3,0.722 ± 0.13,1.01 ± 0.19,0.804 ± 0.11
CC(C)NCC(O)COc1ccc(COCCOC(C)C)cc1 (centres undefined) [Bisoprolol fumarate],1.22 ± 0.12,1.01 ± 0.13,0.437 ± 0.094,0.743 ± 0.15,1.15 ± 0.22,0.783 ± 0.16
CCCCC(=O)N(Cc1ccc(-c2ccccc2-c2nnn[nH]2)cc1)[C@H](C(=O)O)C(C)C [Valsartan],1.77 ± 0.13,1.16 ± 0.051,0.262 ± 0.072,0.635 ± 0.12,0.844 ± 0.14,1.13 ± 0.075
O=C(O)COCCN1CCN([C@H](c2ccccc2)c2ccc(Cl)cc2)CC1 [Levocetirizine],1.55 ± 0.081,0.999 ± 0.095,1.11 ± 0.45,0.791 ± 0.39,0.637 ± 0.14,1.22 ± 0.23
CC[C@]1(O)C[C@H]2CN(CCc3c([nH]c4ccccc34)[C@@](C(=O)OC)(c3cc4c(cc3OC)N(C=O)[C@H]3[C@@](O)(C(=O)OC)[C@H](OC(C)=O)[C@]5(CC)C=CCN6CC[C@]43[C@@H]65)C2)C1 [Vincristine sulfate],0.621 ± 0.094,1.47 ± 0.075,4.21 ± 1.1,1.1 ± 0.5,1.26 ± 0.52,0.966 ± 0.26
C[C@]12CCC(=O)C=C1CC[C@@H]1[C@@H]2CC[C@@]2(C)[C@H]1CC[C@]2(O)C(=O)CO [11-Deoxycortisol],1.8 ± 0.16,0.922 ± 0.32,0.73 ± 0.11,0.292 ± 0.049,1.18 ± 0.15,1.17 ± 0.17
CCCNC(=O)NS(=O)(=O)c1ccc(Cl)cc1 [Chlorpropamide],1.21 ± 0.066,1.39 ± 0.18,0.985 ± 0.33,1.16 ± 0.29,0.907 ± 0.19,1.54 ± 0.29
CC(=O)NCCCCCCNC(C)=O [Hexamethylenebisacetamide],1.45 ± 0.15,1.09 ± 0.14,0.79 ± 0.21,1.09 ± 0.18,1 ± 0.042,1.3 ± 0.28
